The record followed here is PMC4336329 (PLoS ONE, 2015).

About 14,000 (4.5%) of roughly 310,000 compounds showed an effect of 50% or more. The effect is printed as a negative number. The list shows a part of the results.
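Note: peak tail current of the secondary pulse compared with the same well before compound.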

The target of the experiment is human ether-à-go-go-related gene (hERG) potassium channel (human, UniProt Q12809). Description: primary screen, population patch clamp on CHO cells stably expressing hERG.
Sequence of human ether-à-go-go-related gene (hERG) potassium channel (Q12809 whole entry, looked up): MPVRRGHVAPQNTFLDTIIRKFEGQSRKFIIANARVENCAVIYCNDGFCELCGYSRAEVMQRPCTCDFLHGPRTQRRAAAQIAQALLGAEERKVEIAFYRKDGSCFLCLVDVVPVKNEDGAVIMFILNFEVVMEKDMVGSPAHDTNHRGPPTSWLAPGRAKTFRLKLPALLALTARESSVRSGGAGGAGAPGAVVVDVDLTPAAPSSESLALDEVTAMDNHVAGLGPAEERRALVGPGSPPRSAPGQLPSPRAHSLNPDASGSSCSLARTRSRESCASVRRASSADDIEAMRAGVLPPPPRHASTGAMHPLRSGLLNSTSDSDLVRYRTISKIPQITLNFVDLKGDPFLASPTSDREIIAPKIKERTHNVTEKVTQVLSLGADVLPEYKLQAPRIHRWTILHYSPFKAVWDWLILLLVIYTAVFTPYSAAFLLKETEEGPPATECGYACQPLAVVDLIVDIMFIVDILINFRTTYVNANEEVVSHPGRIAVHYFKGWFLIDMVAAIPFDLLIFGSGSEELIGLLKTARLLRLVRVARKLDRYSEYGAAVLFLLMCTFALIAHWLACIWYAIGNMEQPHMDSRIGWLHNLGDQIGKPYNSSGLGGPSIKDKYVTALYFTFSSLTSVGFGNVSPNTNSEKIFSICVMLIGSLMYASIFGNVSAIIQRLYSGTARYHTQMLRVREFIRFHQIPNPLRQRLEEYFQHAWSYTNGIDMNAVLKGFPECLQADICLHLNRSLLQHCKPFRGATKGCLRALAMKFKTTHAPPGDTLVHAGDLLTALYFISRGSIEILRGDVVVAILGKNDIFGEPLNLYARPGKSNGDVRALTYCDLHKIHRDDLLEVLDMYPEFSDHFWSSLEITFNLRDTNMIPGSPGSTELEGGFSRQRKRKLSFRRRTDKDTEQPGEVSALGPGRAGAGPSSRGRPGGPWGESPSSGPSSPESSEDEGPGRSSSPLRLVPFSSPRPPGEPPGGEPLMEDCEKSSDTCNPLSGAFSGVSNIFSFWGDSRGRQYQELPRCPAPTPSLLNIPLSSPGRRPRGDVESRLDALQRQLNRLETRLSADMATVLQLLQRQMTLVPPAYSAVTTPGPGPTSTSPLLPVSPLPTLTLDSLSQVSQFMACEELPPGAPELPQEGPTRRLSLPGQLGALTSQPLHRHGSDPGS
For `Cc1ccc(SCCC(=O)N(C)CC(=O)Nc2c(C)cccc2C)cc1`, the “hERG current change (%, negative = inhibition) at 10uM” value is -35.2%.
Then `CC(=O)c1sc(-c2ccc(Cl)cc2)cc1N`, with 10.6%; and `CCOC(=O)c1ccc(Oc2cn[nH]c2-c2ccc(OCC(=O)NN)cc2O)cc1`, with 10.5%.
Then `CC(C(=O)Nc1ccc(O)c(C(=O)O)c1)N1C(=O)/C(=C/c2cccs2)SC1=S` (stereo not drawn), with 17.6%.
Then `Cc1ccc(CSc2ccc3nnc(-c4ccccn4)n3n2)cc1`, with -71.8%.
Consider `CC1CCC(NC(=O)CN2CCC(n3nnc4cc(F)ccc43)CC2)CC1` (stereo not drawn), for which the “hERG current change (%, negative = inhibition) at 10uM” value is listed as -58.4%.
Regarding `O=C(c1ccc(Oc2ccccc2)cc1)C1CCCN(C(=O)c2cnccn2)C1` (stereo not drawn), the “hERG current change (%, negative = inhibition) at 10uM” value is reported as -24%.
Next, `CCOC(=O)C1CCN(C(c2cc3ccc(C)cc3[nH]c2=O)c2nnnn2C2CCCCC2)CC1` (stereo not drawn): -44.5%.
Next, `COc1ccc(CCC(=O)NCC(=O)OCc2ccccc2)cc1`: 14.4%; `COC(=O)[C@@]12CCCN1[C@H](c1ccc(-c3ccc(F)cc3)cc1)[C@H]1C(=O)N(C)C(=O)[C@H]12.O=C(O)C(F)(F)F`: -31.2%.
Next, `S=C(c1ccc(N2CCCC2)c(Br)c1)N1CCCCC1`: 4.25%.
Turning to `CCc1ccc(C(=O)COC(=O)c2cc([N+](=O)[O-])ccc2NCCO)cc1`, the “hERG current change (%, negative = inhibition) at 10uM” value is given as -10.4%.
Then `COC(=O)Cn1c(C)c(C(C)=O)c(C(C)=O)c1C`, with 14.1%.
Next, `CN1CCN(c2nnc(-c3ccccc3)c(-c3ccccc3)n2)CC1`: -11.8%; `Cc1cc(NC(=O)CCC(=O)N(CCc2ccccc2)C(C(=O)NC2CCCC2)c2ccco2)no1` (stereo not drawn): -66.1%; `Cc1cccc(CCNC(=O)CCS(=O)(=O)c2cc3c(cc2C)NC(=O)CO3)c1`: -21%.
Then `CCN(CC)S(=O)(=O)c1cc(NC(=O)C(C)Nc2ccccc2N2CCOCC2)ccc1C` (stereo not drawn), with 30.5%.
Consider `O=c1cc(Cl)[nH]n(-c2ccccc2)c1=O`, for which the “hERG current change (%, negative = inhibition) at 10uM” value amounted to 17.9%.
Next, `OCCN(Cc1ccccc1)Cc1cccc(F)c1`: 3.32%; `CCN(CC)C(=O)Cn1cc(C(=O)C(=O)N2CCN(c3ccccc3)CC2)c2ccccc21`: -0.908%; `COc1cc(/C=C2/CC(C)OC2=O)c([N+](=O)[O-])cc1OC` (stereo not drawn): 11.1%.
Next, `CCOC(=O)C1CCN(C(=O)c2ccc(Cl)c(S(=O)(=O)N3CCOCC3)c2)CC1`: -32.4%.
Next, `O=C(N/N=C/c1ccc(OC(=O)c2ccccc2Cl)cc1)c1ccc(O)cc1`: 11%.
Consider `CC(=O)NCCOc1nc(N(C)C)nc(N2CCCCC2)n1`, for which the “hERG current change (%, negative = inhibition) at 10uM” value is given as -8.91%.
Then `COCCn1c(SCC(=O)c2cccc(OC)c2)nnc1-c1ccco1`, with -14.7%; and `CN1C(=O)C(=O)/C(=C(/O)c2ccc(Br)cc2)C1c1ccc(F)cc1` (stereo not drawn), with -0.395%; and `CCOc1ccc(CCNC(=O)C2CCCN(c3nnc(-n4cccc4)s3)C2)cc1OCC` (stereo not drawn), with -20%.
Next, `COCCN(C(=O)CCC(=O)Nc1cc(C)on1)C(C(=O)NC1CCCC1)c1ccccc1C` (stereo not drawn): 14.7%; `COC(=O)C1N2C(=O)[C@@H](NC(=O)COc3ccccc3)[C@H]2SC1(C)C` (stereo partly drawn): -4.31%.
Next, `CCOC(=O)C1=C(c2ccccc2)OC(N)=C(C#N)C1c1cccs1` (stereo not drawn): 3.11%.
Take `COc1ccccc1C(=O)NCCC(=O)N1CCCCCCC1`: the “hERG current change (%, negative = inhibition) at 10uM” value is listed as 4.61%.
Take `COc1ccc(-c2nc(-c3cccc(C)c3)no2)cc1OC`: the “hERG current change (%, negative = inhibition) at 10uM” value worked out at 10.7%.
Then `CC1(C)Cc2sc3c(=O)[nH]c(=S)[nH]c3c2CO1`, with 16.6%; and `Cc1ccc(S(=O)(=O)Nc2ccc(O)c(S(=O)(=O)c3ccc(C)cc3)c2)cc1`, with 23.6%; and `COc1cccc(NS(=O)(=O)c2ccc(-n3cccn3)cc2)c1`, with 5.11%.
Next, `Cc1cc(C)cc(OCC(=O)Nc2ccc3c(c2)OCCO3)c1`: 10.8%; `O=c1[nH]nc(N2CCOCC2)c(=O)[nH]1`: 2.93%; `O=C(NCCc1cn2ccccc2n1)c1cc(COc2c(F)cccc2F)on1`: -64.9%.
Then `O=C(COc1ccc(Br)cc1Cl)NC1CCCCC1`, with 9.84%.
As for `COc1ccc(-c2cc(C)no2)cc1S(=O)(=O)N1CCN(c2cccc(C)c2)C(C)C1` (stereo not drawn), the “hERG current change (%, negative = inhibition) at 10uM” value turned out to be 12.2%.
Take `COc1ccc(CCNC(=O)C(=O)Nc2ccc3c(c2)OCO3)cc1OC`: the “hERG current change (%, negative = inhibition) at 10uM” value is on record as -7.82%.
As to `CN1CCN(C2Cc3cc(Cl)ccc3Sc3cc(F)ccc32)CC1.CS(=O)(=O)O` (stereo not drawn), the “hERG current change (%, negative = inhibition) at 10uM” value is -38.2%.
Take `COC(=O)c1ccc(C)c(NS(=O)(=O)c2ccc(C)c([N+](=O)[O-])c2)c1`: the “hERG current change (%, negative = inhibition) at 10uM” value is listed as -25.8%.
Turning to `C=CCn1cc(C=C2C(=O)N(C)C(=O)N(C)C2=O)c2ccccc21`, the “hERG current change (%, negative = inhibition) at 10uM” value came to 23.9%.
`CCc1cc2c(=O)c(-c3ccc4c(c3)OCCO4)coc2cc1OC(=O)c1ccco1`: the “hERG current change (%, negative = inhibition) at 10uM” value is reported as -0.816%.
`c1ccc(Cn2c(CNc3nc4ccccc4n3CCN3CCOCC3)nc3ccccc32)cc1`: the “hERG current change (%, negative = inhibition) at 10uM” value is recorded as -84.3%.
Turning to `N#CCSc1nnc2sc3ccccc3n12`, the “hERG current change (%, negative = inhibition) at 10uM” value is 9.35%.
Next, `CC(=O)c1cccc(NC(=O)CC2SC(N3CCCCC3)=NC2=O)c1` (stereo not drawn): -18.6%.
Consider `Cc1cc(C)nc(N/N=C/C(Cl)=C/c2ccccc2)n1`, for which the “hERG current change (%, negative = inhibition) at 10uM” value was -9.42%.
Next, `Cl.O=C(/C=C/c1ccco1)OCC1CCCN2CCCCC12` (stereo not drawn): -10.4%; `CCCS(=O)(=O)c1c(S(=O)(=O)CCC)c2cnccn2c1C(=O)c1ccc(OC)cc1`: 11.9%; `Oc1ccccc1CNc1nccs1`: 21.3%.
Then `Cc1ccc(-n2c(SCC(=O)Nc3cc(S(=O)(=O)N4CCOCC4)ccc3Cl)nc3ccccc3c2=O)cc1`, with 2.71%; and `O=C(CCCc1ccccc1)N1CCN(c2ccc([N+](=O)[O-])cc2)CC1`, with -64.7%.
Then `CC(=O)N1CCN(S(=O)(=O)c2ccc(S(=O)(=O)NCC(C)C)cc2)CC1.O=C(O)C(=O)O`, with -4.06%.
As for `CCn1cc(C(=O)N2CCN(c3ccc(OC)cc3)CC2)c(=O)c2cc(S(=O)(=O)N3CCOCC3)ccc21`, the “hERG current change (%, negative = inhibition) at 10uM” value is given as -25.4%.
Next, `Cl.Oc1ccc(Cl)cc1CNCc1ccc(F)cc1`: -12.9%; `C=CCSC1=C(C#N)C(c2ccccc2)CC(=O)N1` (stereo not drawn): -8.2%; `CCCCOc1ccc(C(=O)N2CCNC(=O)C2CC(=O)OC(C)C)cc1` (stereo not drawn): 13.1%.
As to `COc1nc(N2CCOCC2)nc(-n2cccc2)n1`, the “hERG current change (%, negative = inhibition) at 10uM” value is recorded as -4.33%.
Next, `CCn1c(O)c(C=NCc2ccccc2)c(=O)[nH]c1=S`: 24.1%.
In the case of `CCOC(=O)C(NCc1ccccc1OC)(NC(=O)c1ccccc1)C(F)(F)F` (stereo not drawn), the “hERG current change (%, negative = inhibition) at 10uM” value amounted to 2.04%.
Then `CC(=O)Nc1ccc(Oc2ccc3nc(C)[nH]c3c2)cc1`, with 21.7%; and `COc1ccc(CCNC(=O)CCC2COc3ccccc3O2)cc1OC` (stereo not drawn), with 0.425%; and `O=C(COC(=O)C1CCN(S(=O)(=O)c2ccc3c(c2)OCCO3)CC1)Nc1ccccc1OC(F)F`, with 11.3%.
Then `O=C(N/N=C/c1[nH]c2ccccc2c1Cl)c1cccc(Br)c1`, with 13.7%; and `COC(=O)CSc1cccc2c1C(=O)CC2c1ccccc1` (stereo not drawn), with -21%; and `CN(C(=O)C1CCC(=O)N(Cc2ccccc2F)C1)C1CCOCC1` (stereo not drawn), with 10.2%.
Consider `CNC(=O)/C(C#N)=C/c1c(F)cccc1Cl`, for which the “hERG current change (%, negative = inhibition) at 10uM” value stood at 11.8%.
Take `Oc1ccc2ccccc2c1Br`: the “hERG current change (%, negative = inhibition) at 10uM” value is recorded as 9.16%.
`COc1ccc(C(=O)n2cnnc2N)cc1`: the “hERG current change (%, negative = inhibition) at 10uM” value was 0.371%.
Next, `COc1cc(NC(=O)c2cc(C(C)C)on2)c(OC)cc1Cl`: 3.16%.
Then `O=C(NCC(=O)N(Cc1cccs1)C(C(=O)NC1CCCCC1)c1cccnc1)c1ccco1` (stereo not drawn), with 5.48%.
Then `Nc1cccc(C(=O)Nc2ccc(N)cc2Cl)c1`, with 4.49%.
`Cc1cccc(NC(=O)C2CCCN2C(=O)NC2CCCCC2)c1` (stereo not drawn): the “hERG current change (%, negative = inhibition) at 10uM” value was 27.8%.
`O=c1[nH]c2cc3c(cc2cc1CN(Cc1cccs1)Cc1nnnn1Cc1ccco1)OCCO3`: the “hERG current change (%, negative = inhibition) at 10uM” value is -26.7%.
Next, `CC(N)C12CC3CC(C1)CC(C(C)N)(C3)C2.Cl` (stereo not drawn): 4.42%; `O=C(O)CSc1c(-c2ccccc2)[nH]c2ccccc12`: 17.8%; `CCOCCCNC(=O)Cc1ccc(OC)c(OC)c1`: 14.1%.
Then `Cc1onc(-c2c(Cl)cccc2Cl)c1C(=O)N[C@@H]1C(=O)N2[C@@H]1SC(C)(C)[C@@H]2C(=O)[O-].O.[Na+]`, with 13.1%; and `COc1ccc(-c2cc(=O)n(CCC#N)[nH]2)cc1`, with 25.3%; and `CS(=O)(=O)c1cccc(C(=O)NC(c2ccccc2)c2ccccc2)c1`, with -28%.
Next, `CCOC(=O)C1=CC[C@@H](c2ccco2)N(S(=O)(=O)c2ccc(C)cc2)[C@H]1C(=O)OCC`: -17.8%; `COC(=O)c1ccc(NC2c3ncccc3C(=O)N2Cc2cccs2)cc1` (stereo not drawn): -41%; `O=C(O)/C=C/c1ccc(S(=O)(=O)Nc2ccccc2C(=O)Nc2ccc(F)cc2)cc1`: 19.2%.
For `CCN(CC(=O)Nc1ccc2c(c1)OCCO2)C(=O)COc1ccc(C)cc1`, the “hERG current change (%, negative = inhibition) at 10uM” value was -9.49%.
Then `CSc1nc(C)c(C(=O)C[n+]2ccccc2C)cc1C#N.[Br-]`, with -23.4%.
